Experimental data reported in PubChem BioAssay AID588342 (National Center for Advancing Translational Sciences (NCATS), 2011).
Several values for one entry are separate records, joined by “and”; a condition that tells them apart may be missing. Equal values may be shown once. The campaign covered roughly 360,000 compounds. About 25,000 (6.9%) were called active. The inconclusive results got no clear call from the source; some entries with a clear call stand among them for comparison. Calls come from the whole dose curve; as a rule, active = well fitted inhibition curve with a large enough effect; inconclusive = small, poorly fitted or top-dose-only effect; inactive = flat fitted curve, though single readings scatter. Where the call is inconclusive, the potency comes from a doubtful curve fit.

biological target: Luciferin 4-monooxygenase (Photinus pyralis) (UniProt P08659); test: qHTS profiling assay for firefly luciferase inhibitor/activator using purifed enzyme and Km concentrations of substrates (counterscreen for miR-21 project); details: purified FLuc, luminescence inhibition; activity change, negative = inhibition: at 57.5 µM (top of the series); note: nearly all actives have a fitted effect of over 55% in size;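 for activity change, negative = inhibition: plate controls were vehicle for no effect and reference inhibitor for full effect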
Chain of UniProt P08659 (P08659 whole entry, looked up): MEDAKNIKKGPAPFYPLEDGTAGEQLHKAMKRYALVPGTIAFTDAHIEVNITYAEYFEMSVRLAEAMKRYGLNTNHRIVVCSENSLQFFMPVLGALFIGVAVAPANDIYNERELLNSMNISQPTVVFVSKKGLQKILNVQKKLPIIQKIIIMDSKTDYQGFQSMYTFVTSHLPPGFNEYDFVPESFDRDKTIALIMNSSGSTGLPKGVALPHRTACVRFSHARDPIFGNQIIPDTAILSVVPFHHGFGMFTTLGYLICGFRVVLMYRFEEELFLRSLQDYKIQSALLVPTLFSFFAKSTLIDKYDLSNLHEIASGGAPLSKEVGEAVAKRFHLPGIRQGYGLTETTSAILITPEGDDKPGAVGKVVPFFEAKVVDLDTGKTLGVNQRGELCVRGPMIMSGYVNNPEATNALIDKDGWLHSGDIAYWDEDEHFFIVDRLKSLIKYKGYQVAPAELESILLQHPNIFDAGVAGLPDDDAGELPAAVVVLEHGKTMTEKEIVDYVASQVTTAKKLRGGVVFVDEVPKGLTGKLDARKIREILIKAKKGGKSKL
Procedure, shortened: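 Purified P. pyralis luciferase, 10 nM final, with Km-level 10 uM D-luciferin and 10 uM ATP in 50 mM Tris acetate pH 7.5, 10 mM Mg acetate, 0.01% Tween-20, 0.05% BSA; 6-point qHTS titration about 60 µM downward; luminescence read.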
Potency is the fitted concentration of half-maximal effect; tags give direction and shape of the fitted curve.

SMILES	Potency	activity change, negative = inhibition
Cc1ccc2[nH]c(C(=O)Nc3ccc(F)cc3)cc2c1	inconclusive: 2.39 µM [inhibitor, full curve]	
CCCCOc1ccc(NC(=O)Nc2nnc(C)s2)cc1	inconclusive: 9.53 µM [inhibitor, partial curve, poor fit]	
Cc1nn2c(NCc3cccnc3)c3c(nc2c1-c1ccccc1)CCC3	inconclusive: 37.9 µM [inhibitor, partial curve, poor fit]	
Cc1cccc(OCCCCn2c(C3CC(=O)N(c4ccccc4Cl)C3)nc3ccccc32)c1 (stereo not given)		inactive: -11.7%
CCOc1ccc(N=Cc2ccc3ccccc3c2)cc1	active: 0.757 µM	
Cc1ccc(-c2nc3cc(NC(=O)c4cc5ccccc5o4)ccc3o2)cc1		inactive: -10.3%
CCOC(=O)C(Nc1ccc2ccccc2c1)C(=O)OCC	inconclusive: 37.9 µM [inhibitor, partial curve, poor fit]	
CCc1ccc(NC(=O)C(=O)N/N=C(\C)CC(=O)Nc2ccccn2)cc1	inconclusive: 8.49 µM [inhibitor, partial curve, poor fit]	
O=C(/C=C/c1ccccc1)Nc1ccc2c(c1)OCCO2	active: 0.213 µM	
CN(C)c1ccc(CNC(=O)C2CCCN(S(=O)(=O)c3ccc4c(c3)oc(=O)n4C)C2)cc1 (stereo not given)		inactive: 0.692%
O=C(/C=C/c1ccc(Cl)cc1Cl)NCCN1CCOCC1	inconclusive: 26.9 µM [inhibitor, partial curve, poor fit]	
c1cc2[nH]snc2c2nc(C3CC3)nc12	inconclusive: 26.9 µM [inhibitor, single point]	
S=c1[nH]nc(COc2ccccc2)n1-c1ccccc1	inconclusive: 21.3 µM [inhibitor, partial curve, poor fit]	
Cc1cccc(OCC(=O)NC(Cc2c[nH]c3ccccc23)C(=O)O)c1C (stereo not given)	inconclusive: 30.1 µM [inhibitor, single point] and inconclusive: 37.9 µM [inhibitor, partial curve, poor fit]	
COc1ccc(CCNC(=O)C(=O)NCC(c2ccc3c(c2)OCO3)N2CCOCC2)cc1 (stereo not given)		inactive: -1.37%
COC(CNC(=O)c1cn(C)c2ccc(S(=O)(=O)N(C)C3CCCCC3)cc2c1=O)OC		inactive: 3.49%
Cc1cc(N2C(=O)C=CC2=O)c([N+](=O)[O-])cc1C	inconclusive: 23.9 µM [inhibitor, single point]	
COc1ccc(C(=O)NCCS(=O)(=O)NCCc2ccccc2)cc1	inconclusive: 21.3 µM [inhibitor, partial curve]	
Cc1noc(C)c1C(=O)Nc1ccc2c(c1)CCC2	inconclusive: 30.1 µM [inhibitor, partial curve, poor fit]	
CC1C=CCC2C(=O)N(c3cccc(C(=O)Nc4ccc(Br)cc4)c3)C(=O)C12 (stereo not given)	inconclusive: 23.9 µM [inhibitor, partial curve, poor fit]	
Cc1ccc(NC(=O)CCCC2CCCCC2)c(O)c1	active: 8.49 µM	
CN(C)c1ccc(CN(CC2CCCO2)C(=O)COc2ccccc2Cl)cc1 (stereo not given)		inactive: -12.1%
COc1cc(SC)ccc1C(=O)Nc1cccc(S(=O)(=O)NC2=NCCC2)c1	inconclusive: 16.9 µM [inhibitor, partial curve]	
O=C(/C=C/c1ccccc1)N/C(=C/c1ccccc1)C(=O)N1CCCCC1		inactive: 1.41%
CC(NC(=O)c1ccccc1)C(=O)OCC(=O)c1c(N)n(C)c(=O)n(C)c1=O (stereo not given)		inactive: 6.78%

SMILES	Potency	activity change, negative = inhibition
CCCNC(=S)Nc1cc2oc3ccccc3c2cc1OC	inconclusive: 30.1 µM [inhibitor, partial curve, poor fit]	
Cc1ccccc1C(=O)N(Cc1ccc(N(C)C)cc1)Cc1ccco1		inactive: -2.76%
COc1ccc(-c2noc(CCC(=O)N(C)c3ccccc3C)n2)cc1		inactive: -2%
COCCCNS(=O)(=O)c1cc(-c2onc(C)c2C)ccc1OC		inactive: -6.34%
CC(=O)Nc1ccc(NC(=O)CSc2ncc(C(=O)Nc3ccc(F)cc3)c(=O)n2C)cc1	inconclusive: 9.53 µM [inhibitor, partial curve]	
COc1cccc(/C=N/NC(=O)C(=O)N2CCCC2)c1O	active: 15.1 µM	
C/C(CC(=O)N1CCCC1)=N\NC(=O)c1cc2ccccc2cc1O	active: 15.1 µM	
COc1cccc(C(=O)Nc2ccc(NC(C)=O)cc2)c1	inconclusive: 23.9 µM [inhibitor, partial curve, poor fit]	
O=C(c1cc2cc(F)ccc2[nH]1)N1CCC(Cc2ccccc2)CC1	inconclusive: 37.9 µM [inhibitor, single point]	
O=C(Nc1ccc(S(=O)(=O)N2CCCC2)cc1Cl)C1=COCCO1		inactive: -1.32%
O=C(Nc1ccccc1O)c1ccccc1O	active: 9.53 µM	
CCN(CC)C1CCN(C(=O)c2cc(COc3ccc(-n4cncn4)cc3)on2)C1 (stereo not given)		inactive: -2.79%
CC(=O)Nc1ccc(/C=N/OCC(=O)Nc2ccc(C)cc2)cc1	inconclusive: 23.9 µM [inhibitor, single point]	
Cc1occc1C(=O)N/N=C/C=C/c1ccc(N(C)C)cc1	active: 23.9 µM	
NC(=O)c1ccc(-c2nnn(CC(=O)Nc3cccc(S(=O)(=O)N4CCCC4)c3)n2)cc1	inconclusive: 7.57 µM [inhibitor, full curve]	
O=C(Nc1ccc(-c2nc3cc(NC(=O)c4ccccc4Cl)ccc3o2)cc1)c1ccccc1Cl		inactive: -2%
CCN(CC)c1ccc(S(=O)(=O)N2CCOCC2)cc1NC(=O)CSc1nnc(N)s1		inactive: -7.83%
C=CCOC(=O)COc1ccc2c(C)c(CC)c(=O)oc2c1	active: 12 µM	
COc1cc(C(=O)Nc2ccccn2)cc(OC)c1OC		inactive: -0.704%
CCOc1ccc(-c2nc(C#N)c(NCc3ccco3)o2)cc1	inconclusive: 16.9 µM [inhibitor, partial curve]	
O=C(c1cccs1)N(Cc1cccnc1)c1nc2c(Cl)cccc2s1	inconclusive: 37.9 µM [inhibitor, partial curve, poor fit]	
CCCN1CCN(C(=O)C2CCN(S(=O)(=O)c3ccc4c(c3)oc(=O)n4C)CC2)CC1		inactive: 1.32%
Oc1ccc(-c2nc3ccccn3c2NCc2ccc3c(c2)OCO3)cc1	inconclusive: 26.9 µM [inhibitor, single point]	
CC(C)n1c2ccccc2c2nnc(SCC(=O)Nc3ccccc3C(=O)O)nc21	active: 19 µM	
CC(C)(C)c1ccc(S(=O)(=O)NCC(=O)N2CCN(Cc3ccccc3)CC2)cc1		inactive: 1.23%

SMILES	Potency	activity change, negative = inhibition
CCCOc1ccc(N/C=C/C(=O)c2ccc(OC)c(OC)c2)cc1	inconclusive: 6.01 µM [inhibitor, partial curve, poor fit]	
Nc1sc(-c2ccccc2)cc1C(=O)O		inactive: -19.6%
Cc1ccc(OC(C)C(=O)Nc2cc(C)on2)cc1 (stereo not given)	active: 19 µM	
CCOc1cc(CC(=O)N[C@@H](CC(C)C)c2ccccc2N2CCCCC2)ccc1C(=O)O	inconclusive: 8.49 µM [inhibitor, partial curve]	
O=C1c2ccccc2NC(c2ccc(-c3ccc(F)cc3)o2)N1O (stereo not given)	inconclusive: 5.36 µM [inhibitor, single point]	
COc1cc(C(=O)Nc2cccc(-c3nc4cc(C)ccc4o3)c2C)cc(OC)c1OC	active: 0.953 µM	
CC1CCc2sc(C(=O)N/N=C/C3CCCCC3)cc2C1 (stereo not given)	inconclusive: 37.9 µM [inhibitor, single point]	
Cc1nc(C)c(-c2ccc(SCC(=O)Nc3ccc(Cl)c(Cl)c3)nn2)s1	inconclusive: 8.49 µM [inhibitor, partial curve, poor fit]	
CCOC(=O)C1=CC[C@H]2c3c(c4ccccc4n3C)C(=O)C1N2C(=O)OC(C)(C)C		inactive: -2.79%
COc1ccccc1-c1ccc(SCc2ccc(F)cc2)nn1	active: 23.9 µM	
COc1cc(C(=O)NC(C)c2cnn(-c3ccccc3C)c2C)cc(OC)c1OC (stereo not given)		inactive: -10.6%
O=C(Nc1ccc(N2CCOCC2)nc1)c1cccs1	inconclusive: 23.9 µM [inhibitor, partial curve]	
CC(C)CC(=O)Nc1nnc(S(=O)(=O)N2CCCCCC2)s1	inconclusive: 8.49 µM [inhibitor, full curve]	
COC(=O)c1nn(-c2ccccc2)nc1-c1nn(-c2ccccc2)nc1C(=O)OC	active: 2.39 µM	
Cc1ccsc1/C=N/NC(=O)c1sccc1C	active: 5.36 µM	
Cc1ccc(-n2c(C)cc(C(=O)CN3CCCCC3)c2C)cc1	inconclusive: 21.3 µM [inhibitor, partial curve, poor fit]	
COc1ccc(NC(=O)c2ccccc2NS(C)(=O)=O)cc1OC	active: 16.9 µM	
Cc1cc(C(=O)NNC(=O)CN2C(=O)NC3(CCCCC3)C2=O)c(C)o1		inactive: -0.587%
Cc1cc(N(C)C)nc(Nc2ccccc2)n1	inconclusive: 23.9 µM [inhibitor, single point]	
COc1cccc(C(=O)NCc2ccc(-c3nc4ccccc4s3)cc2)c1	active: 2.69 µM	
COc1ccc(-c2csc3nc(C)nc(N4CCCCC4)c23)cc1OC		inactive: -17.6%
N#Cc1c(C(F)(F)F)cc(-c2ccc(F)cc2)[nH]c1=O	inconclusive: 9.53 µM [inhibitor, partial curve, poor fit]	
CCc1ccc(NC(=O)C2C3/C=C\CCCCC32)cc1 (stereo not given)	inconclusive: 3.01 µM [inhibitor, full curve, poor fit]	
CC1=C(C(=O)Nc2ccccc2)C(c2cccnc2)n2nc(SCc3ccccc3F)nc2N1 (stereo not given)		inactive: -0.49%
Cc1cc(NCc2ccccn2)n2nc(C)c(-c3ccc(Cl)cc3)c2n1	inconclusive: 37.9 µM [inhibitor, partial curve, poor fit]	
